The other results are listed elsewhere or left out. Single values are uncertain, as repeats are few or missing.
Key:
Test in all cases: cell count relative to DMSO control; melanoma cells; higher = more viable cells
Conditions in all cases: library dose: standard library concentration; 72 h
G361 = system: G361
IPC-298 = system: IPC-298
IST-MEL1 = system: IST-MEL1
LB2518-MEL = system: LB2518-MEL
LOXIMVI = system: LOXIMVI
MEL-HO = system: MEL-HO
MZ2-MEL = system: MZ2-MEL
MeWo = system: MeWo
RPMI7951 = system: RPMI7951
RVH-421 = system: RVH-421
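Note: cells treated in 1,536-well plates, then fixed and DAPI-stained, with nuclei counted from automated high-throughput microscope images.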

Compound	cell count (G361) [%]	cell count (IPC-298) [%]	cell count (IST-MEL1) [%]	cell count (LB2518-MEL) [%]	cell count (LOXIMVI) [%]	cell count (MEL-HO) [%]	cell count (MZ2-MEL) [%]	cell count (MeWo) [%]	cell count (RPMI7951) [%]	cell count (RVH-421) [%]
O=c1[nH]nc(Sc2ncc([N+](=O)[O-])s2)n1-c1ccc2c(c1)OCCO2 + COc1cc2c(Oc3ccc4[nH]c(C)cc4c3F)ncnc2cc1OCCCN1CCCC1 [cediranib] (first compound 1 µM, partner dose 2 µM)	89.8	136	79.3	98.2	80.8	115	115	104	66	86.6
O=c1[nH]nc(Sc2ncc([N+](=O)[O-])s2)n1-c1ccc2c(c1)OCCO2 + C[C@@H]1CCN(C(=O)CC#N)C[C@@H]1N(C)c1ncnc2[nH]ccc12 [CP690550] (first compound 1 µM, partner dose 5 µM)	88.1	97	85.5	89.9	108	102	106	81.3	76.6	84.2
O=C(Nc1cccc(Cl)c1)Nc1ncc(CCNc2ncnc3ccsc23)s1 + O=c1cc(-c2cccc3c2Sc2ccccc2S3)oc(N2CCOCC2)c1 [KU55933] (first compound 0.004 µM, partner dose 5 µM)	65.6	89.2	57.4	97	56.5	77	96.8	68.4	62.8	91.6
O=C(Nc1cccc(Cl)c1)Nc1ncc(CCNc2ncnc3ccsc23)s1 + Oc1nc(-c2ccc(C(F)(F)F)cc2)nc2c1CSCC2 [XAV939] (first compound 0.004 µM, partner dose 10 µM)	68.3	68.7	54.7	69.3	78.6	68.5	42.5	74.6	46.9	93
CC1(C)NC(=O)N(c2ccc([N+](=O)[O-])c(C(F)(F)F)c2)C1=O [nilutamide] + CN(NC(=O)CC(=O)NN(C)C(=S)c1ccccc1)C(=S)c1ccccc1 [STA4783] (first compound 5 µM, partner dose 0.03 µM)	29.4	80.5	25.8	28.1	66	81.6	115	13.9	89.8	96.4
O=c1[nH]nc(Sc2ncc([N+](=O)[O-])s2)n1-c1ccc2c(c1)OCCO2 + Cc1nc(Nc2ncc(C(=O)Nc3c(C)cccc3Cl)s2)cc(N2CCN(CCO)CC2)n1 [dasatanib] (first compound 1 µM, partner dose 0.02 µM)	75.1	76.1	77.8	67.7	32.8	71.1	49.5	69.1	42.5	66.8
C[C@@H]1CCN(C(=O)CC#N)C[C@@H]1N(C)c1ncnc2[nH]ccc12 + O=C1NC(=O)/C(=C/c2ccc(-c3ccc(F)cc3O)o2)S1 [AS252424] (first compound 5 µM, partner dose 5 µM)	73.1	94.4	88.2	95.9	91.6	71.3	86.9	82.5	82.6	102
C[C@@H]1CCN(C(=O)CC#N)C[C@@H]1N(C)c1ncnc2[nH]ccc12 + COc1ccc(COc2ccc(Cc3cnc(N)nc3N)cc2OC)cc1 [GW2580] (first compound 5 µM, partner dose 5 µM)	97.7	104	106	142	97.6	107	91.3	94.3	69.9	85.1
O=C(Nc1cccc(Cl)c1)Nc1ncc(CCNc2ncnc3ccsc23)s1 + CCCCCCCCCCCC1=C(O)C(=O)C=C(O)C1=O [Embelin] (first compound 0.004 µM, partner dose 6 µM)	75	78.8	36.6	88.6	87.1	65.7	55.4	61.5	67.5	29.9
